Laboratory results from PubChem BioAssay AID651820 (National Center for Advancing Translational Sciences (NCATS), 2012).
About 12,000 (3.5%) of roughly 340,000 compounds were called active. The shares of active, inactive and inconclusive entries below differ from those in the screen. Calls come from the whole dose curve; as a rule, active = well fitted inhibition curve with a large enough effect; inconclusive = small, poorly fitted or top-dose-only effect, or another doubt; inactive = no such curve, though single readings can be large or run the other way. No potency is given beside an inconclusive call; the fits are too rough.

Assay: qHTS Assay for Inhibitors of Hepatitis C Virus (HCV)
Conditions: Huh7.5.1 HCVcc-Cre (HCVcc is cell-culture hepatitis C virus) infection, luciferase reporter, 44 h; activity change, negative = inhibition: at 41.8 µM (top of the series)
How it was run: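 Cells seeded at 1,000/well and cultured 4 h, then compounds added followed by HCVcc-Cre virus (~0.5 moi). After 44 h further culture, luciferase substrate was added, plates held 15 min at room temperature, and luminescence read for 15 sec.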
% is set by controls: 0 for no effect and ±100 for the full control effect; potency is the fitted concentration of half-maximal effect; tags give direction and shape of the fitted curve.

| SMILES | activity change, negative = inhibition | Potency |
| --- | --- | --- |
| CC(N=c1ccccn1C(=O)Nc1ccc(Cl)cc1)c1ccco1 (configuration not stated) | inactive: 4.94% | – |
| CC(C(=O)NC1CCCC1)N(Cc1ccco1)C(=O)c1snc(C(=O)NC2CCCC2)c1N (configuration not stated) | inactive: -18.2% | – |
| Cc1cccc(NC(=S)NCCC(C)C)c1 | – | inconclusive [inhibitor, partial curve] |
| CCN(CC)S(=O)(=O)c1ccc(NC2c3ccccc3C(=O)N2Cc2ccc3c(c2)OCO3)cc1 (configuration not stated) | – | inconclusive [inhibitor, single point] |
| CCN(CC)CCCNC(=O)c1ccc2c(=O)n(Cc3ccc4c(c3)OCO4)c(=S)[nH]c2c1 | – | inconclusive [inhibitor, full curve] |
| O=C1C=C(c2cccc3c2oc2ccccc23)C[C@@H](c2ccc(F)cc2)C1 | – | inconclusive [inhibitor, single point] |
| O=C(CSc1nc(-c2ccc(F)cc2)cc(C(F)(F)F)n1)Nc1ccc2c(c1)OCO2 | – | inconclusive [inhibitor, partial curve] |
| O=C(Nc1ccccc1C(=O)Nc1ccccn1)c1ccc([N+](=O)[O-])cc1 | – | inconclusive [inhibitor, single point] |
| Cc1ccccc1/C=N/NC(=O)c1sccc1C | inactive: -9.15% | – |
| Cc1c(C(=O)Nc2c(C)n(C)n(-c3ccccc3)c2=O)oc2c(Cl)cccc12 | – | inconclusive [inhibitor, partial curve] |
| Cc1oc(-c2ccc(Cl)cc2)nc1CN1CCC(C(=O)NCc2cccnc2)CC1 | – | active: 14.1 µM |
| CN(C(=O)COC(=O)c1nc(Cl)c(Cl)c(Cl)c1Cl)C1CCS(=O)(=O)C1 (configuration not stated) | – | active: 10 µM |
| CCOc1nc2c(c(=O)n(C)c(=O)n2C)n1Cc1ccccc1Cl | – | inconclusive [inhibitor, full curve] |
| CC(=O)Nc1ccc2nc(-c3ccccn3)[nH]c2c1 | inactive: 2.87% | – |
| CC(C)C[C@H]1CN=C(Nc2ccccc2)N1CC1CCCCCC1 | – | inconclusive [inhibitor, single point] |
| CCNS(=O)(=O)c1ccc(CCC(=O)NCCC2=CCCCC2)cc1 | inactive: 12.8% | – |
| Cc1cc(=O)oc2cc(OCCSc3nnc(-c4ccccc4)o3)ccc12 | – | inconclusive [inhibitor, full curve, poor fit] |
| CCOC(=O)C1=C(C)N=c2s/c(=C3\C(=O)Nc4ccccc43)c(=O)n2C1c1ccc2c(c1)OCO2 (configuration not stated) | – | inactive |
| CCOC(=O)c1sc2nc(N3CCCC3)c3c(c2c1N)CC(C)(C)OC3 | – | inconclusive [inhibitor, full curve, poor fit] |
| CC(C)(C)N1C(=O)[C@H]2[C@@H](c3ccc(Br)cc3)N3C(=O)N(c4cccc(Cl)c4)C(=O)[C@@]3(Cc3ccccc3)[C@H]2C1=O | inactive: 2.5% | – |
| Cc1cc(C)cc(OCC(O)CN2CCC(CN3C(=O)c4cccc5cccc(c45)C3=O)CC2)c1 (configuration not stated) | – | active: 2.24 µM |
| Cc1sc2ncnc(N3CCN(S(=O)(=O)c4ccc(F)cc4)CC3)c2c1C | – | inconclusive [inhibitor, single point] |
| O=C(c1cnn2c(C(F)F)cc(-c3ccccc3)nc12)N1CCc2ccccc2C1 | – | inconclusive [inhibitor, single point] |
| COc1ccc(-c2csc(Nc3ccccn3)n2)cc1OC | – | active: 8.91 µM |

| SMILES | activity change, negative = inhibition | Potency |
| --- | --- | --- |
| Cn1cccc1Cc1nnc(SCC(=O)Nc2ccc3c(c2)OCCO3)n1CCc1ccccc1 | inactive: -16.6% | – |
| COc1ccc2[nH]c3c(N4CCC(O)(c5cccc(C(F)(F)F)c5)CC4)ncnc3c2c1 | – | active: 6.31 µM |
| Cn1[nH]c(C(F)(F)F)cc1=O | inactive: 7.25% | – |
| CCOC(=O)C1CCN(C(=O)c2ccccc2NC(=O)c2ccc(Br)cc2)CC1 | inactive: 20.7% | – |
| CCn1c(Cc2ccccc2)nnc1SCC(=O)Nc1ccccc1O | inactive: -4.54% | – |
| CCCOc1ccc(Br)cc1/C=N/O | – | active: 10 µM |
| Cc1cc(C)n(-c2ccc(C(=O)Nc3nc4ccccc4s3)cc2)n1 | – | inconclusive [inhibitor, full curve] |
| O=C1/C(=C/c2cccnc2)Oc2cc(OS(=O)(=O)c3ccc(Cl)cc3)ccc21 | – | inconclusive [inhibitor, single point] |
| Cc1cc(C)c(OCC(=O)Nc2ccc3c(c2)OCO3)cc1C | – | inconclusive [inhibitor, single point] |
| O=C(NCCc1c[nH]c2ccccc12)c1cc2sccc2n1Cc1ccccc1 | – | active: 5.01 µM |
| Cc1ccc(CNC(=O)c2ccc(N3CCC4(CC3)CC(c3cccc(Br)c3)=NO4)c(N)c2)cc1 | – | inconclusive [inhibitor, partial curve] |
| CCC(C)NC(=O)c1cn(CC)c2cc(N3CCN(C(=O)c4ccco4)CC3)c(F)cc2c1=O (configuration not stated) | – | active: 14.1 µM |
| O=C(CN1CCCCC1)N/N=C/c1ccc(Cl)cc1Cl | inactive: -21.5% | – |
| CCCn1c(SCc2ccc(Cl)cc2)nc2c1c(=O)[nH]c(=O)n2C | inactive: -17.3% | – |
| COc1ccc(-c2cc(=Nc3ccccc3)c3cc(C)ccc3o2)cc1 | inactive: 2.95% | – |
| COc1cc(C(CC(=O)N2CCN(c3ccccc3)CC2)c2c(OC)cc(OC)c3ccc(=O)oc23)cc(OC)c1OC (configuration not stated) | – | inconclusive [inhibitor, single point] |
| Cc1c(C(=O)c2ccc(Cl)c([N+](=O)[O-])c2)c2ccccn2c1CCC#N | – | inconclusive [inhibitor, single point] |
| CCCCOCCCn1c(-c2ccco2)nc2nc3ccccc3nc21 | – | inconclusive [inhibitor, single point] |
| CCN(CC(=O)Nc1ccccc1OC)CC(=O)Nc1ccccc1-c1ccccc1 | – | inconclusive [inhibitor, single point] |
| COc1cccc(/C=C2\SC(=S)N(CC(=O)N(C)C3CCS(=O)(=O)C3)C2=O)c1 (configuration not stated) | inactive: 10.2% | – |
| COc1ccc([C@H]2CC(=O)C=C(c3cccc(Br)c3)C2)cc1 | – | inconclusive [inhibitor, single point] |
| O=C(Nc1ccncc1)c1ccc(Cl)c(S(=O)(=O)N2CCCC2)c1 | – | inconclusive [inhibitor, single point] |
| CCn1c2ccccc2c2cc(NC(=O)COC(=O)c3cc(S(=O)(=O)N4CCCCC4)ccc3Cl)ccc21 | – | inconclusive [inhibitor, partial curve, poor fit] |
| O=C(COC(=O)/C=C/c1ccc(F)cc1)Nc1ccc(S(=O)(=O)N2CCOCC2)cc1 | inactive: 6.33% | – |

| SMILES | activity change, negative = inhibition | Potency |
| --- | --- | --- |
| CNc1nc(SCc2ccc(C)cc2)nc2c1CCCC2 | – | inconclusive [inhibitor, single point] |
| Cn1c(=O)c2c(nc(NCc3ccc4c(c3)OCO4)n2Cc2ccccc2F)n(C)c1=O | – | inconclusive [inhibitor, partial curve] |
| Cc1c(C(=O)Nc2c3c(nn2C(C)(C)C)CS(=O)(=O)C3)cccc1[N+](=O)[O-] | inactive: 5.78% | – |
| CCOc1cc(CO)cc(Br)c1OCC(=O)Nc1ccccc1C | – | inconclusive [inhibitor, partial curve] |
| Cc1nn(Cc2cccc(C(=O)N3N=C(C(F)F)CC3(O)C(F)F)c2)c(C)c1[N+](=O)[O-] (configuration not stated) | – | inconclusive [inhibitor, partial curve] |
| COc1ncccc1C(=O)N1CCCC(N2CCN(c3cccc(Cl)c3)CC2)C1 (configuration not stated) | – | inconclusive [inhibitor, single point] |
| CCCCN(CCCC)S(=O)(=O)c1ccc(NC(=O)c2cccs2)cc1 | – | inconclusive [inhibitor, single point] |
| O=C(c1ccc(NC(=O)C2(c3ccccc3)CCOCC2)cc1)N1CCOCC1 | inactive: 19.4% | – |
| Cc1ccc(C2NC(c3ccc(C)cc3)C(C)C(=NO)C2C)cc1 (configuration not stated) | – | inconclusive [inhibitor, full curve, poor fit] |
| COc1ccc(N2CC(C)Cn3c2nc2c3c(=O)n(Cc3ccccc3)c(=O)n2C)c(OC)c1 (configuration not stated) | – | inconclusive [inhibitor, partial curve, poor fit] |
| COc1ccccc1N1CCN(C2CCCC(C)C2)CC1 (configuration not stated) | inactive: -24.9% | – |
| COc1ccc(NC(=O)COc2ccccc2)cc1Cl | – | inconclusive [inhibitor, single point] |
| Cc1ccc(N(CC(=O)NCC2CCCO2)S(C)(=O)=O)cc1Cl (configuration not stated) | – | inconclusive [inhibitor, full curve] |
| O=C(CN1CCCCC1)n1c2ccccc2c2ccccc21 | inconclusive: -43.8% [inhibitor] | – |
| COc1ccc(Br)cc1CNC(=O)C1CCN(S(=O)(=O)N2CCCC2)CC1 | inactive: -6.82% | – |
| CC1CCc2sc3ncnc(N4CCN(C)CC4)c3c2C1 (configuration not stated) | inactive: -14.9% | – |
| CC(C)N(Cc1ccccc1)C(=O)COC(=O)c1cc(S(=O)(=O)N(C)C)ccc1N1CCCC1 | – | inconclusive [inhibitor, partial curve] |
| CCOc1ccc(Cl)cc1S(=O)(=O)N1CCC(C(=O)NCc2cccnc2)CC1 | inactive: 2.64% | – |
| C#CCOc1ccc(C2C3=C(CC(C)(C)CC3=O)N(CC(=O)O)C3=C2C(=O)CC(C)(C)C3)cc1OC | inactive: 0.822% | – |
| Cc1ccc(N2CC(C(=O)Nc3nc4ccc(S(C)(=O)=O)cc4s3)CC2=O)cc1C (configuration not stated) | – | inconclusive [inhibitor, single point] |
| O=C(CSc1nnc(COc2cccc3cccnc23)o1)N1CCCC1 | inactive: 16.3% | – |
| COc1ccc(S(=O)(=O)Nc2ccc3c(c2)OCCO3)cc1OC | inactive: 3.56% | – |
| COC(=O)c1sccc1NC(=O)c1cc(OC)c(OC)c(OC)c1 | inactive: -10.6% | – |
| COc1ccc(NC(=O)c2cccc(S(=O)(=O)N3CCCCCC3)c2)cc1 | – | inconclusive [inhibitor, single point] |
